The list shows a part of the results. Shown are side measurements of this screen, not its main read-out; they come without a call. Compounds called inactive in the main read-out are mostly missing here. Words in brackets tell the shape of the fitted curve; partial curves, single points and poor fits give uncertain potencies.
Target: Nicotinamide N-methyltransferase (Homo sapiens) (UniProt P40261)
Assay: Confirmatory Screen for Target Class Profiling of Small Molecule Inhibitors of Methyltransferases (AID 1745852);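 note: inhibitor potency for blocking SAH production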
Settings: MTase-Glo luminescence, SAH detection, recombinant enzyme; measured here: NNMT inhibition potency
Tags give direction and shape of the fitted curve.

Chain of UniProt P40261 (P40261 whole entry, looked up): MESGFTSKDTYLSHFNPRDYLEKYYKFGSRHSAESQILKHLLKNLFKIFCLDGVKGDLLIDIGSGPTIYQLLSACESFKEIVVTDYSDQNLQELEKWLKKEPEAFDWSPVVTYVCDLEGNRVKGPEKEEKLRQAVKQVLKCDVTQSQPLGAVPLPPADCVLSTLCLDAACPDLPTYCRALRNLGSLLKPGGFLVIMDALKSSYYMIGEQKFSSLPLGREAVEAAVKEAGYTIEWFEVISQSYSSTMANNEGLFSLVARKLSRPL

SMILES	IC50
CC(C)Cn1c(=O)c2ccccc2n2c(CCC(=O)N3CCN(c4ccc(F)cc4)CC3)nnc12	21.5 µM [falling, partial curve]
COC(=O)c1cc2n(n1)CC(C)(C(=O)NC1CCC(C)CC1)N(Cc1ccc(OC)cc1OC)C2=O (stereo not given)	19.2 µM [falling, partial curve]
COc1cccc(N2C(=O)NC(=NC3CCCCC3)C23CCCN(CC2CCCCC2)C3)c1 (stereo not given)	27.1 µM [falling, partial curve]
COc1ccccc1CNC(=O)C1(C)Cn2c(cc3ccccc32)C(=O)N1Cc1ccc(OC)c(OC)c1 (stereo not given)	7.64 µM [falling, full curve]
c1ccc(CN2CCc3c(sc4ncnc(N5CCOCC5)c34)C2)cc1	27.1 µM [falling, partial curve]
Cc1cccc(N2CCN(C(=O)CCc3nnc4n(CC(C)C)c(=O)c5ccccc5n34)CC2)c1C	10.8 µM [falling, partial curve]
O=S(=O)(Nc1cc(Cl)c(Oc2cnc3ccccc3c2)c(Cl)c1)c1ccc(Cl)cc1Cl	24.1 µM [falling, partial curve]
CC(C)Cn1c(=O)c2ccccc2n2c(CCC(=O)N3CCC(Cc4ccccc4)CC3)nnc12	19.2 µM [falling, partial curve]
Cc1cc(C)c(NS(=O)(=O)c2ccc3c(c2)n(C)c(=O)n3C)c(C)c1	21.5 µM [falling, partial curve]
Nc1nonc1-c1nc2cnccc2n1C1CCCCC1	21.5 µM [falling, partial curve]
